Experimental data: PubChem BioAssay AID504832 (National Center for Advancing Translational Sciences (NCATS), 2011)
Hit rate of the full screen: of about 310,000 compounds, about 18,000 (5.8%) were called active. Inconclusive means that the source gave no clear call. Such entries were picked first, then a sample of the others. Calls follow the shape of the dose curve; as a rule, active = well fitted inhibition curve with a large enough effect; inconclusive = small, poorly fitted or top-dose-only effect, or another doubt; inactive = no such curve, though single readings can be large or run the other way. No potency is given beside an inconclusive call; the fits are too rough.

Experiment: Primary qHTS for delayed death inhibitors of the malarial parasite plastid, 48 hour incubation
Conditions: P. falciparum luciferase growth in erythrocytes; series mostly up to 28.7 µM
Summary of the method: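 Here the parasites carry a stable luciferase gene and grow inside erythrocytes in Albumax-based RPMI medium with compound for one erythrocytic cycle. Activity is scored as loss of luminescent signal.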
% is scaled to controls: 0 for no effect and ±100 for the full control effect; potency is read from the fitted curve at half-maximal effect; tags tell the direction and shape of the fitted curve.

SMILES | Potency | activity change, negative = inhibition
O=C(Nc1ccc(F)c([N+](=O)[O-])c1)c1ccc2c(c1)C(=O)OC2=O | inactive | –
COC(=O)C1=C(N)Oc2cc(C)n(Cc3cccnc3)c(=O)c2C1c1cccc(OC)c1OC (stereo not drawn) | inactive | –
COc1ccc(C2=NN(C(=O)c3cccs3)C(c3ccc(OC)cc3)C2)cc1 (stereo not drawn) | inconclusive [inhibitor, single point] | –
O=C(CN1C(=O)C(=O)c2ccccc21)OCN1C(=O)c2ccccc2C1=O | inconclusive [inhibitor, partial curve, poor fit] | –
CCn1c(=O)c(CCC(=O)NCC2CCCO2)c(C)c2c(C)nn(-c3ccc(C)cc3)c21 (stereo not drawn) | active: 5.22 µM | –
C[n+]1c(/C=C/c2ccc(O)cc2)ccc2ccccc21 | inconclusive [inhibitor, partial curve] | –
COc1ccc([N+](=O)[O-])c(OC)c1C(=O)NC(=O)Nc1c(F)cc(F)cc1F | inconclusive [inhibitor, full curve, poor fit] | –
O=[N+]([O-])c1cc(C(F)(F)F)ccc1NCCNC(=S)Nc1ccc(Cl)cc1 | inconclusive [inhibitor, single point] | –
O=C(NCCCCc1ccccc1)Nc1ccc(F)cc1F | inactive | –
CCOC(=O)c1ccc(NC(=S)N(CCCN2CCN(CC)CC2)Cc2ccco2)cc1 | inconclusive [inhibitor, single point] | –
N#CC1=C(N)NC(SCC(=O)c2ccc(Cl)cc2)=C(C#N)C12CCCC2 | inconclusive [inhibitor, single point] | –
CCCC(=O)NCc1ccc2c(c1)cc(C)n2C | inactive | –
Cc1nc2c(nnn2Cc2ccccc2)c(=O)n1-c1ccccc1 | inconclusive [inhibitor, single point] | –
CN(C)c1ccc(CC2C(=O)Nc3ccccc32)cc1 (stereo not drawn) | inconclusive [inhibitor, single point] | –
CCOC(=O)c1c(NC(=O)CN(CC)CC)sc2c1CCN(C(=O)OCC)C2 | active: 9.28 µM | –
C/C(=C\c1ccc(Br)cc1)C(=O)c1c(C)cc(C)[nH]c1=O | inactive | –
C=C1CCN([C@@H](C)C(=O)OCc2ccc(C)cc2)S(=O)(=O)c2ccccc21 | inconclusive [inhibitor, single point] | –
Cc1cccc(C(=O)N2CCN(S(=O)(=O)N3CCCCCC3)CC2)c1 | inactive | –
COC(=O)C1=C(C)N(Cc2ccco2)C(=O)/C1=C\c1ccc([N+](=O)[O-])cc1 | inconclusive [inhibitor, single point] | –
COc1ccc(C2NCCc3c2[nH]c2ccccc32)cc1CN1CCc2cc(OC)c(OC)cc2C1C (stereo not drawn) | active: 1.65 µM | –
CC(=O)c1cc2c(cc1NC(=O)CSc1nc3ccc(C)cc3[nH]1)OCO2 | inconclusive [inhibitor, single point] | –
Cc1cc(/C=C(\C#N)C(=O)NCc2cccs2)c(C)n1-c1ccc([N+](=O)[O-])cc1 | active: 2.33 µM | –

SMILES | Potency | activity change, negative = inhibition
CCOCCCNC(=O)C(c1ccc(C)cc1)N(Cc1cccs1)C(=O)CNC(C)=O (stereo not drawn) | inactive | –
CCN(C(=O)CCN1C(=O)/C(=C/c2ccccc2)SC1=S)C1CCS(=O)(=O)C1 (stereo not drawn) | active: 13.1 µM | –
CCN(CC)C(=O)Cn1cc(C(=O)C(=O)NCc2ccco2)c2ccccc21 | inconclusive [inhibitor, single point] | –
C/C(=N\N1CCN(C2c3ccccc3-c3ccccc32)CC1)c1cccnc1 | inconclusive [inhibitor, single point] | –
C=CCn1c(SCCCc2ccccc2)nc2c1c(=O)[nH]c(=O)n2C | inconclusive [inhibitor, single point] | –
CCN(CC)S(=O)(=O)c1ccc(OC)c(NC(=O)COc2ccc3c(C)cc(=O)oc3c2)c1 | inconclusive [inhibitor, partial curve, poor fit] | –
CCCCCn1c(CNC(=O)c2cccs2)nc2ccccc21 | inconclusive [inhibitor, single point] | –
Cc1ccccc1NC(=O)COc1ccccc1C | inconclusive [inhibitor, partial curve, poor fit] | –
CCn1c(COc2cc(C)cc(C)c2)nnc1SCC(=O)N1CCN(c2ccccc2)CC1 | inconclusive [inhibitor, full curve] | –
Cn1nc(-c2ccccc2)c(C(=O)Nc2ccc(C(F)(F)F)cc2)c1Cl | inactive | –
O=C1CCC/C(=N\NC(=O)c2ccc(COc3ccccc3-c3ccccc3)cc2)C1 | inconclusive [inhibitor, partial curve, poor fit] | –
Cc1nnc(OC(C)C)c2nn(-c3ccccc3F)c(C)c12 | inconclusive [inhibitor, partial curve, poor fit] | –
CCCOc1cccc(C2C(C(=O)c3cccs3)=C(O)C(=O)N2CCN2CCOCC2)c1 (stereo not drawn) | – | inactive: 21.3% [at 0.00184 µM]
CCCCCCSc1ccc([C@H]2N[C@@](Cc3ccccc3)(C(=O)OC)[C@H]3C(=O)N(C)C(=O)[C@@H]23)cc1OC | active: 3.29 µM | –
O=C1c2cccc3cccc(c23)C(=O)N1CCN1CCN(C(=S)Nc2ccc(F)cc2)CC1 | inactive | –
Cc1sc2nc(CSCC(=O)N(CCC#N)c3ccccc3F)[nH]c(=O)c2c1C | inconclusive [inhibitor, single point] | –
O=C(NCc1ccccn1)c1cc(-c2ccc(Cl)cc2)nc2ccccc12 | inconclusive [inhibitor, partial curve, poor fit] | –
CNC(=O)CSc1nc2[nH]ncc2c(=O)[nH]1 | inconclusive [inhibitor, partial curve, poor fit] | –
O=C(NCCCN1CCCC1=O)c1ccc([N+](=O)[O-])s1 | active: 10.4 µM | –
COc1cc(NC(=O)c2ccccc2)c(OC)cc1NC(=O)CN1CCN(c2ccccn2)CC1 | inconclusive [inhibitor, full curve] | –
CCOc1ccc(NC(=O)C2CCN(S(=O)(=O)c3ccc4c(c3)NC(=O)C(C)S4)CC2)cc1 (stereo not drawn) | inconclusive [inhibitor, single point] | –
